# Measured values from paper PMC6919601, “Identification of Plasmodium dipeptidyl aminopeptidase allosteric inhibitors by high throughput screening” (PLoS ONE, 2019).
# Several values for one entry are separate records, joined by “and”; a condition that tells them apart may be missing. Equal entries are not always repeated. The whole screen tested about 110,000 compounds, of which about 230 (0.21%) showed an effect of 50% or more. The list shows a part of the results.
# Target: DPAP1 (Plasmodium falciparum, UniProt Q8IIJ9)
# Sequence (Q8IIJ9 whole entry, looked up): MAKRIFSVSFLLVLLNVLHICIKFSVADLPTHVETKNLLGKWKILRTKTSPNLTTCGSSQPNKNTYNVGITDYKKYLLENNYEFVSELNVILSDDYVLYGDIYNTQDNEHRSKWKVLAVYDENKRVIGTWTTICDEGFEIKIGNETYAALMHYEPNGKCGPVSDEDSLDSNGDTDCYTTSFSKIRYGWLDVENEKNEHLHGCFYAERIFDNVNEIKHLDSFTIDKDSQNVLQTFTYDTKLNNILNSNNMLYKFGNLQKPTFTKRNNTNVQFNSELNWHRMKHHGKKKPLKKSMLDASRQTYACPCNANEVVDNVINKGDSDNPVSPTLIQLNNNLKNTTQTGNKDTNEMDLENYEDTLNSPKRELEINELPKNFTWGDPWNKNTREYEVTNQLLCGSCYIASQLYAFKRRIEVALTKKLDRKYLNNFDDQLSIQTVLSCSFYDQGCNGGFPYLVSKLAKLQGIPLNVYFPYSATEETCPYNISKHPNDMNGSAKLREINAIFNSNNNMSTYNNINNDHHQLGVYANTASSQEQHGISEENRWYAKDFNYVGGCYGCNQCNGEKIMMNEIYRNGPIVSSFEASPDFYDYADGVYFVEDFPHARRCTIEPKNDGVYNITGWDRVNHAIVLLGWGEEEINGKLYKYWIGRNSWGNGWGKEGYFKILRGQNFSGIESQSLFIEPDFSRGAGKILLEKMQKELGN
# Experiment: primary screen, percent inhibition; read by cleavage of a fluorogenic dipeptide substrate; higher = more effect of the substance
# Design: species or system P. falciparum D10 trophozoite lysates; single well
# 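Also: 30 min substrate incubation versus DMSO and 10 µM JCP410 controls.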
row,SMILES,% Inhibition @ 10 uM
1,COc1cc2c(cc1OC)C(COc1ccccc1OC)N(C(=O)c1ccccc1F)CC2 (stereo not shown),4.15%
2,COc1cc([N+](=O)[O-])cc2c(CCN3C(=O)c4ccccc4C3=O)c[nH]c12,3.34%
3,N#CC1=C(N)OC2=C(C(=O)CCC2)C1c1ccco1 (stereo not shown),-3.35%
4,Cc1cc(N2CCN(C)CC2)c2ccccc2n1,5.73%
5,Cc1nc(NC2=NCN(CCCN3CCOCC3)CN2)nc2c(C)cccc12,1.91%
6,COc1ccc(C(=O)N2CCN(C(=O)c3ccncc3)CC2)cc1,0.587%
7,O=C(O)c1cccc(C(=O)c2cccc3ccccc23)c1,-0.872%
8,COc1cc(NC(=O)c2cccc(Cl)c2)c(OC)cc1Cl,-2.6%
9,COc1cc(C2CC(=O)N3C(=C2C#N)SCC3(O)c2ccc(C)cc2)cc(OC)c1O (stereo not shown),-0.0235%
10,Clc1ccc(N2CCCC2)nn1,-4.69%
11,O=C(CNC(=O)Cn1ccc2ccccc2c1=O)NCCCN1CCCCCC1,7.93%
12,Cc1ccc(CCN2CC(C(=O)NC3CCCC(C)C3C)CC2=O)cc1 (stereo not shown),-3.58%
13,COc1ccc(OC)c(CNC(=O)CN2Cc3ccccc3C2=O)c1,-2.17%
14,O=C(Nc1ccc2ccccc2c1)c1ccco1,1.29%
15,Fc1ccc(CN2CCN(Cc3ccccc3)CC2)cc1,-3.71%
16,O=C(CN1CCOCC1)c1ccc(C2CCCC2)cc1,19.7%
17,Cc1ccccc1OCC(=O)Nc1cc(Cl)c(O)c(Cl)c1,1.4%
18,CSc1nc(SC)c2cnn(-c3ccccc3)c2n1,-0.0272%
19,O=C(NCCc1ccccc1)c1ccc(CNS(=O)(=O)c2cccc(Cl)c2)cc1,1.17%
20,CN1CC[C@@]2(O)CCCC[C@@H]2[C@H]1c1cccnc1,-0.261%
21,Cc1ccc(C)c(S(=O)(=O)NC(C)C(=O)Nc2ccc(Cl)c(Cl)c2)c1 (stereo not shown),5.61%
22,Cc1c(Cl)cccc1N(CC(=O)N1CCOCC1)S(=O)(=O)c1ccccc1,-0.46%
23,COc1cc(OC)c(C2C(C#N)=C(N)Oc3[nH]nc(C)c32)cc1OC (stereo not shown),0.687%
24,CN(C)CCCOc1nc2c(c(=O)n(C)c(=O)n2C)n1C,-10% and -3.77%
25,O=C(C1Cc2ccccc2CN1S(=O)(=O)c1cccs1)N1CCCCC1 (stereo not shown),6.57%
26,CC1(C)CC(=O)c2c(sc3ccccc23)O1,-4.43%

row,SMILES,% Inhibition @ 10 uM
1,CCCCN(Cc1ccccc1)Cc1cc(Cl)cc(Cl)c1O,4.8%
2,CCn1cc(/C=C(\NC(=O)c2ccccc2OC)C(=O)NCCCn2ccnc2)c2ccccc21,-5.36%
3,COc1ccc(Cc2c(O)n3c(nc2=O)SCCC3)cc1,2.51%
4,COc1ccccc1/C=c1\sc2nc(-c3ccccc3Br)nn2c1=O,-4.85%
5,COc1ccc(Oc2nc3ccccc3s2)cc1,4.06%
6,COc1cc(/C=C2\SC(=O)NC2=O)cc(OC)c1OC,7.62%
7,Cc1cccc(NC(=O)c2cc3ccc4cccnc4c3[nH]2)n1,-0.528%
8,COc1c(/C=N/NC(N)=S)c(C)nn1-c1ccccc1,-1.1%
9,CC(Oc1ccccc1)C(=O)Nc1c2c(nn1-c1cccc(Cl)c1)CS(=O)(=O)C2 (stereo not shown),11.1%
10,CCc1ccc(-c2ncnn2-c2cccc(Cl)c2C)cc1,-1.82%
11,COc1ccc(-n2nnc(-c3nc(-c4ccc(Cl)cc4)no3)c2N)cc1OC,0.0603%
12,C=Cc1ccc(Cn2c(C)c(CNCc3ccccc3F)c(C(=O)O)c2C)cc1,-0.23%
13,CCC[C@H](NC(=O)C1(NC(=O)c2ccc(-c3csc(N4CCN(C)CC4)n3)cc2)CCCCC1)C(=O)c1nc2ccccc2o1,-6.46%
14,CC(C)c1ccccc1OCCN1CCNCC1,-4.35%
15,Cc1ccc(S(=O)(=O)c2nnn3c2nc(NC2CC2)c2cc(Cl)ccc23)cc1C,0.291%
16,CCOc1ccc(N2C(=O)CC(N3CCC(N4CCCCC4)CC3)C2=O)cc1 (stereo not shown),-2.89%
17,Cc1ccc(CNC(=O)Cn2nc(C)n3c(cc4occc43)c2=O)cc1,-3.79%
18,CCN(CC)CCCCSc1ccc(O)cc1,-1.41%
19,O=C(CSCc1cnn(-c2ccccc2)c1-n1cccc1)NCCC1=CCCCC1,9.77%
20,OC(Cc1ccccc1)(Cc1ccccc1)C1CN2CCC1CC2 (stereo not shown),4.01%
21,O=C(Cn1ncn2cccc2c1=O)N1CCN(Cc2ccc3c(c2)OCO3)CC1,-9.13%
22,O=C(O)/C=C/c1cccc(NS(=O)(=O)c2ccc(O)c(C(=O)O)c2)c1,3.06%
23,COc1ccccc1NC(=O)c1ccccc1NC(=O)c1ccc(C)cc1,9.65%
24,O=C(CSc1nc(O)c2c3c(sc2n1)CCCC3)N(CCO)CCO,-1.08%
25,Fc1ccccc1N1CCN(C2C3CC4CC(C3)CC2C4)CC1 (stereo not shown),1.57%
26,CCOc1ccc(C2(C)CC(=O)NC2=O)cc1 (stereo not shown),-2.55%
